Consider three molecules from US20040229298A1.

Where “and” joins values, the source holds several entries; their conditions need not be identical. Equal values may be shown once.

The target in experiment [1] is T1, HPV16 E6 PDZ ligand peptide (biotinylated C-terminal peptide of the E6 protein of HPV 16) (human papillomavirus 16). Description: G assay ELISA, signal over GST-only well.
The target in experiment [2] is T1, HPV16 E6 PDZ ligand peptide …. The experiment in a line: G assay ELISA, immobilised GST-PDZ, 10 uM biotinylated peptide.

B1: GST-PDZK1 PDZ domains 2, 3, 4 fusion protein (protein)
chain: [about 200 residues not printed]SDLIEGRGGVQTWTQPRLCYLVKEGGSYGFSLKTVQGKKGVYMTDITPQGVAMRAGVLADDHLIEVNGENVEDASHEEVVEKVKKSGSRVMFLLVDKETDKRHVEQKIQFKRETASLKLLPHQPRIVEMKKGSNGYGFYLRAGSEQKGQIIKDIDSGSPAEEAGLKNNDLVVAVNGESVETLDHDSVVEMIRKGGDQTSLLVVDKETDNMYRLAHFSPFLYYQSQELPNGSVKEAPAPTPTSLEVSSPPDTTEEVDHKPKLCRLAKGENGYGFHLNAIRGLPGSFIKEVQKGGPADLAGLEDEDVIIEVNGVNVLDEPYEKVVDRIQSSGKNVTLLVCGKKAYDYFQA
In experiment [1], B1 came in with an OD S/N of 2.64. In experiment [2], this molecule yielded an Ave OD of 0.518 A450 nm.

B2: GST-NeDLG PDZ domains 1, 2 fusion protein (protein)
chain: [about 200 residues not printed]SDLIEGRGSDGMFKYEEIVLERGNSGLGFSIAGGIDNPHVPDDPGIFITKIIPGGAAAMDGRLGVNDCVLRVNEVDVSEVVHSRAVEALKEAGPVVRLVVRRRQPPPETIMEVNLLKGPKGLGFSIAGGIGNQHIPGDNSIYITKIIEGGAAQKDGRLQIGDRLLAVNNTNLQDVRHEEAVASLKNTSDMVYLKVAKPGSL
As for B2, the OD S/N in experiment [1] is 19.8 and 17.1. The Ave OD in experiment [2] was 3.4 A450 nm and 3.12 A450 nm.

B3: GST-MINT1 PDZ domains 1, 2 fusion protein (protein)
chain: [about 200 residues not printed]SDLIEGRIHFSKSENCKDVFIEKQKGEILGVVIVESGWGSILPTVIIANMMHGGPAEKSGKLNIGDQIMSINGTSLVGLPLSTCQSIIKGLKNQSRVKLNIVRCPPVTTVLIRRPDLRYQLGFSVQNGIICSLMRGGIAERGGVRVGHRIIEINGQSVVATPHEKIVHILSNAVGEIHMKTMPAAMYRLLTAQE
B3: the OD S/N in experiment [1] was determined as 2.11. The molecule further gave an Ave OD in experiment [2] of 0.608 A450 nm.
